From the supplement of paper PMC11125491
± gives the standard deviation of the averaged measurements. Growth of baker's yeast expressing single-residue variants of Pneumocystis jirovecii dihydrofolate reductase in 8.8 or 44 µM methotrexate (about 75% and 90% inhibition of the wild type). Selection coefficient per generation; 0 = like wild type, above 0 = less sensitive, below 0 = more sensitive or loss of function. No active / inactive call per row; the paper calls resistant above 0.220 (8.8 µM) or 0.243 (44 µM) together with a significance test. At 44 µM about 15% of codons end with one read or none, so the lowest values are floors (replicate rank correlation 0.74; 0.94 at 8.8 µM).

B1: UniProt A0EPZ9; numbered along this chain (parent)
chain: MDWQKSLTLIVALTLSRGIGLKNDLPWKLKSDMMFFSRVTSGLLVTRSTGQMNVVLMGRKTWESLPAHSRPLKNRINVVISRQEVLDLGGGAYHARSLDDALALLSQIYDSTSKIQLNRVFVIGGGELCKAAMEHSRLNRIIATVIHNEVDCDVFFPIDFRSSQSCLPWRKQDHSVLEAWVGSKVPQGKINENGFIYEFEMWIRDI

Variants of: B1
Experiment: selection coefficient against synonymous wild-type codons (log2 per generation); higher = faster growth than wild type
Details: with Saccharomyces cerevisiae carrying the variant on a plasmid
Experimental: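 Pooled growth of yeast carrying single-residue variants of P. jirovecii dihydrofolate reductase (own DFR1 gene intact), two passages at 30 °C, three cultures, sequenced before and after. Codons with under 15 starting reads are left out; codons of one change are averaged.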

Variant | selection coefficient against synonymous wild-type codons (log2) (methotrexate 8.8 µM) | selection coefficient against synonymous wild-type codons (log2) (methotrexate 44 µM)
L15D | 0.317 ± 0.066 | 0.337 ± 0.05
L15E | 0.237 ± 0.027 | 0.244 ± 0.041
L15F | 0.134 ± 0.044 | 0.13 ± 0.11
L15G | 0.316 ± 0.094 | 0.313 ± 0.086
L15H | 0.41 ± 0.036 | 0.366 ± 0.092
L15I | -0.0567 ± 0.026 | -0.0232 ± 0.041
L15K | 0.145 ± 0.039 | 0.144 ± 0.099
L15M | 0.177 ± 0.016 | 0.141 ± 0.068
L15N | 0.279 ± 0.041 | 0.288 ± 0.11
L15P | 0.568 ± 0.12 | 0.623 ± 0.14
L15Q | 0.366 ± 0.013 | 0.357 ± 0.016
L15R | 0.388 ± 0.17 | 0.358 ± 0.21
L15S | 0.364 ± 0.23 | 0.362 ± 0.24
L15T | 0.338 ± 0.026 | 0.328 ± 0.029
L15V | 0.0754 ± 0.024 | 0.0704 ± 0.083
L15W | 0.237 ± 0.0046 | 0.21 ± 0.058
L15Y | 0.164 ± 0.066 | 0.21 ± 0.14
S16A | -0.0986 ± 0.075 | -0.138 ± 0.17
S16C | -0.152 ± 0.062 | -0.122 ± 0.05
S16D | 0.148 ± 0.044 | 0.118 ± 0.068
S16E | 0.153 ± 0.044 | 0.0696 ± 0.053
S16F | -0.252 ± 0.11 | -0.0996 ± 0.18
S16G | 0.0746 ± 0.021 | 0.0568 ± 0.064

Variant | selection coefficient against synonymous wild-type codons (log2) (methotrexate 8.8 µM) | selection coefficient against synonymous wild-type codons (log2) (methotrexate 44 µM)
S16H | 0.0654 ± 0.1 | 0.0696 ± 0.12
S16I | -0.22 ± 0.041 | -0.252 ± 0.19
S16K | -0.096 ± 0.12 | -0.0812 ± 0.084
S16L | -0.318 ± 0.082 | -0.224 ± 0.12
S16M | -0.29 ± 0.022 | -0.268 ± 0.063
S16N | -0.0233 ± 0.069 | -0.0718 ± 0.065
S16P | 0.4 ± 0.056 | 0.422 ± 0.058
S16Q | 0.0506 ± 0.016 | 0.0253 ± 0.21
S16R | -0.0671 ± 0.07 | -0.049 ± 0.05
S16T | 0.158 ± 0.037 | 0.128 ± 0.041
S16V | -0.0474 ± 0.094 | -0.0863 ± 0.15
S16W | -0.201 ± 0.098 | -0.23 ± 0.097
S16Y | -0.179 ± 0.14 | -0.123 ± 0.11
R17A | 0.0805 ± 0.044 | -0.0441 ± 0.2
R17C | -0.168 ± 0.02 | -0.193 ± 0.13
R17D | 0.483 ± 0.04 | 0.554 ± 0.052
R17E | 0.377 ± 0.05 | 0.392 ± 0.018
R17F | -0.371 ± 0.027 | -0.123 ± 0.037
R17G | 0.109 ± 0.059 | 0.0877 ± 0.089
R17H | 0.293 ± 0.038 | 0.247 ± 0.07
R17I | -0.165 ± 0.14 | 0.0413 ± 0.14
R17K | 0.217 ± 0.031 | 0.174 ± 0.005
R17L | -0.454 ± 0.1 | -0.205 ± 0.13

Variant | selection coefficient against synonymous wild-type codons (log2) (methotrexate 8.8 µM) | selection coefficient against synonymous wild-type codons (log2) (methotrexate 44 µM)
R17M | -0.324 ± 0.14 | -0.24 ± 0.084
R17N | 0.303 ± 0.044 | 0.363 ± 0.019
R17P | -0.0894 ± 0.12 | 0.00123 ± 0.11
R17Q | 0.287 ± 0.031 | 0.278 ± 0.058
R17S | 0.164 ± 0.091 | 0.13 ± 0.13
R17T | 0.123 ± 0.089 | 0.131 ± 0.065
R17V | -0.143 ± 0.19 | -0.0469 ± 0.077
R17W | -0.347 ± 0.12 | -0.257 ± 0.14
R17Y | -0.132 ± 0.18 | 0.0499 ± 0.38
G18A | -0.0979 ± 0.087 | -0.0941 ± 0.19
G18C | 0.0581 ± 0.046 | 0.097 ± 0.083
G18D | -0.115 ± 0.14 | 0.0349 ± 0.051
G18E | 0.155 ± 0.022 | 0.219 ± 0.043
G18K | 0.0383 ± 0.066 | 0.0387 ± 0.11
G18L | -0.466 ± 0.063 | -0.176 ± 0.1
G18M | -0.231 ± 0.11 | -0.194 ± 0.14
G18N | -0.106 ± 0.1 | -0.0513 ± 0.039
G18P | -0.313 ± 0.11 | -0.115 ± 0.13
G18Q | 0.0814 ± 0.021 | -0.0263 ± 0.17
G18R | 0.116 ± 0.038 | 0.148 ± 0.049
G18S | -0.0591 ± 0.054 | -0.0584 ± 0.1
G18T | 0.04 ± 0.068 | 0.0751 ± 0.14
G18V | -0.14 ± 0.069 | -0.0159 ± 0.13

Variant | selection coefficient against synonymous wild-type codons (log2) (methotrexate 8.8 µM) | selection coefficient against synonymous wild-type codons (log2) (methotrexate 44 µM)
G18W | -0.331 ± 0.022 | -0.165 ± 0.14
I19A | 0.761 ± 0.054 | 0.911 ± 0.042
I19C | 0.481 ± 0.03 | 0.508 ± 0.027
I19D | -0.0328 ± 0.082 | 0.247 ± 0.1
I19E | 0.575 ± 0.049 | 0.76 ± 0.01
I19F | 0.476 ± 0.013 | 0.576 ± 0.017
I19G | 0.803 ± 0.057 | 0.965 ± 0.028
I19H | 0.891 ± 0.068 | 1.16 ± 0.051
I19K | 0.45 ± 0.009 | 0.6 ± 0.0098
I19L | 0.132 ± 0.056 | 0.164 ± 0.12
I19M | 0.121 ± 0.01 | 0.18 ± 0.0089
I19N | 0.181 ± 0.082 | 0.295 ± 0.11
I19P | -0.336 ± 0.14 | -0.0708 ± 0.07
I19Q | 0.631 ± 0.043 | 0.672 ± 0.011
I19R | -0.176 ± 0.06 | 0.0436 ± 0.24
I19S | 0.418 ± 0.089 | 0.463 ± 0.11
I19T | 0.407 ± 0.058 | 0.446 ± 0.026
I19V | 0.34 ± 0.036 | 0.391 ± 0.032
I19W | 0.323 ± 0.06 | 0.419 ± 0.065
I19Y | 0.687 ± 0.051 | 0.876 ± 0.074
G20A | 0.0801 ± 0.15 | 0.104 ± 0.088
G20C | -0.396 ± 0.085 | -0.293 ± 0.14
G20D | -0.24 ± 0.12 | -0.204 ± 0.14

Variant | selection coefficient against synonymous wild-type codons (log2) (methotrexate 8.8 µM) | selection coefficient against synonymous wild-type codons (log2) (methotrexate 44 µM)
G20E | -0.489 ± 0.037 | -0.321 ± 0.16
G20F | -0.43 ± 0.027 | -0.115 ± 0.11
G20H | -0.297 ± 0.024 | -0.0491 ± 0.05
G20I | -0.38 ± 0.069 | -0.132 ± 0.055
G20K | -0.371 ± 0.08 | -0.343 ± 0.11
G20L | -0.493 ± 0.14 | -0.209 ± 0.14
G20M | -0.517 ± 0.12 | -0.294 ± 0.097
G20N | -0.321 ± 0.052 | -0.073 ± 0.016
G20P | -0.539 ± 0.056 | -0.157 ± 0.095
G20Q | -0.425 ± 0.045 | -0.244 ± 0.17
G20R | -0.305 ± 0.14 | -0.184 ± 0.12
G20S | 0.0501 ± 0.13 | 0.0274 ± 0.13
G20T | -0.444 ± 0.18 | -0.365 ± 0.039
G20V | -0.304 ± 0.26 | 0.104 ± 0.31
G20W | -0.602 ± 0.12 | -0.305 ± 0.12
G20Y | -0.465 ± 0.066 | -0.26 ± 0.021
L21A | 0.145 ± 0.045 | 0.154 ± 0.043
L21C | 0.264 ± 0.023 | 0.262 ± 0.017
L21D | 0.248 ± 0.01 | 0.221 ± 0.046
L21E | 0.256 ± 0.023 | 0.263 ± 0.03
L21F | 0.0539 ± 0.0024 | 0.0943 ± 0.051
L21G | 0.314 ± 0.02 | 0.321 ± 0.037
L21H | 0.286 ± 0.053 | 0.231 ± 0.068
